{"source": "PubChem BioAssay AID504333", "about": "(National Center for Advancing Translational Sciences (NCATS), 2011)", "note": "The campaign covered roughly 360,000 compounds. About 16,000 (4.4%) were called active. This list was built around the results that the source calls inconclusive (neither active nor inactive); the mix of calls is not that of the screen. Calls follow the shape of the dose curve; as a rule, active = well fitted inhibition curve with a large enough effect; inconclusive = small, poorly fitted or top-dose-only effect; inactive = no such curve, though single readings can be large or run the other way. Potencies beside an inconclusive call are fits to weak or partial responses and may not hold up. Potency is read from the fitted curve at half-maximal effect; tags tell the direction and shape of the fitted curve.", "data": [{"target": "Bromodomain adjacent to zinc finger domain protein 2B (Homo sapiens) (UniProt Q9UIF8)", "sequence (Q9UIF8 whole entry, looked up, the tested form may be a part)": "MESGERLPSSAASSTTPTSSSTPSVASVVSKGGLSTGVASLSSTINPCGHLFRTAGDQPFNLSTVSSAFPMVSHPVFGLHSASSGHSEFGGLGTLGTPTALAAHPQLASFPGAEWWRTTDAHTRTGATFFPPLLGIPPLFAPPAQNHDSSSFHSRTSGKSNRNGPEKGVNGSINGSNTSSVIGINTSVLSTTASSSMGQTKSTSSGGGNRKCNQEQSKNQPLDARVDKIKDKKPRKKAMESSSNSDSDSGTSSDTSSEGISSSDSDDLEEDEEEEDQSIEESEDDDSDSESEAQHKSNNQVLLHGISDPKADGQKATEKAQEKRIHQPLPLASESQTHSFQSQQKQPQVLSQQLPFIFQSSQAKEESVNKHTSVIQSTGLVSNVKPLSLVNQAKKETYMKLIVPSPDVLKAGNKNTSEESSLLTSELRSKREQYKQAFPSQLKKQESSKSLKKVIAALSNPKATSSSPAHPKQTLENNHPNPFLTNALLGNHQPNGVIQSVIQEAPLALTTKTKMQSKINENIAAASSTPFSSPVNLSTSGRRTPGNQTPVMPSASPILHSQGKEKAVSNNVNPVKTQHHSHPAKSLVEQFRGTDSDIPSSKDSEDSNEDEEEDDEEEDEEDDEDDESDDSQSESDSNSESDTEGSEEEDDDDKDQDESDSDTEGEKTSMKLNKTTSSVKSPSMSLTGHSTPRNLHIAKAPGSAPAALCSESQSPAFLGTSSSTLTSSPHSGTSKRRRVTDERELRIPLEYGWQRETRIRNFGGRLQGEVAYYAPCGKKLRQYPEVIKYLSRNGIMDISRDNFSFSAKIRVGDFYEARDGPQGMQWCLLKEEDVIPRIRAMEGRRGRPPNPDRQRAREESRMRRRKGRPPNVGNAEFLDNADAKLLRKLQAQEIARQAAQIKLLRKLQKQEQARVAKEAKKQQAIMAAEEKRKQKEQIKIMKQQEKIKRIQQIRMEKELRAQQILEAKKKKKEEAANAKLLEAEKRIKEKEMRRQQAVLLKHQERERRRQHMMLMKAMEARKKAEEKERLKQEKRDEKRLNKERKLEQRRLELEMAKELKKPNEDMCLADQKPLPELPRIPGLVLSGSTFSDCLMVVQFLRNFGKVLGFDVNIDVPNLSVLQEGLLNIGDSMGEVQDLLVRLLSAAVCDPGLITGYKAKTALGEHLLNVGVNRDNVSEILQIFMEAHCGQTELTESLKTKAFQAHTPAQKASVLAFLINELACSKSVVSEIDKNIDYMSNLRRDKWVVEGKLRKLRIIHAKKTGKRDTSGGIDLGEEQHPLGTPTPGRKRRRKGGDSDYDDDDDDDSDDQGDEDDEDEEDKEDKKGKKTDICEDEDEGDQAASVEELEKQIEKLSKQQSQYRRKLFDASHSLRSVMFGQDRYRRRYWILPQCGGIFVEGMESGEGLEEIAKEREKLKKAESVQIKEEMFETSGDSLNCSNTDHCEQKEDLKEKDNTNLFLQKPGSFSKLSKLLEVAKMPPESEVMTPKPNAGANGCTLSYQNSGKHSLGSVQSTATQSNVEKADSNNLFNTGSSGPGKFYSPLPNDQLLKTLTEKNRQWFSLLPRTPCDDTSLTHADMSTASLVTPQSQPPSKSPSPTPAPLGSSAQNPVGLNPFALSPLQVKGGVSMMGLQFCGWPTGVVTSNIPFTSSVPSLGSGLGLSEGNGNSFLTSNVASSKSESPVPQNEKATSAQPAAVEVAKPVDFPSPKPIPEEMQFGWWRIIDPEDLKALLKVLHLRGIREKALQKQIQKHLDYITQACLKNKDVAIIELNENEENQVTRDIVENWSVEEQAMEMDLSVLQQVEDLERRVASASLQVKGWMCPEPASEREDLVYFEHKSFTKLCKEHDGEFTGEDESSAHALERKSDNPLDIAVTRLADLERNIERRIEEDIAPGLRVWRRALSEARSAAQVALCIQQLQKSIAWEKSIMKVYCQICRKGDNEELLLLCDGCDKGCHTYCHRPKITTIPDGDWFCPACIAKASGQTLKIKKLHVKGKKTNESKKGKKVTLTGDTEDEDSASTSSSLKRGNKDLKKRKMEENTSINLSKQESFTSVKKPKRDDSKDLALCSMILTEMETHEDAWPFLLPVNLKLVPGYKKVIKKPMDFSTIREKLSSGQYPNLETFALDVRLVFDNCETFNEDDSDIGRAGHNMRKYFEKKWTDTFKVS", "assay": "qHTS Assay for Inhibitors of BAZ2B; also: nearly all actives have a fitted effect of over 60% in size", "details": "AlphaScreen BAZ2B-H3K14Ac peptide displacement; series mostly up to 114 µM", "method_in_brief": "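BAZ2B 50 nM plus b-H3(5-23)K14Ac 50 nM, PBS pH 7.4/0.01% Tween-20, 30 min RT; compound added (max 110 uM), 30 min RT; streptavidin donor/Ni-chelate acceptor beads 10 ug/mL final, 20 min dark; AlphaScreen read.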", "values": [{"smiles": "C/C(CCC1CC(C)OC1=O)=N/Nc1nc(-c2ccccc2)cs1", "note": "(configuration not stated)", "Potency": "inconclusive: 35.5 µM [inhibitor, partial curve]"}, {"smiles": "CC1CN(C(=S)SCC(=O)c2ccc([N+](=O)[O-])cc2)CC(C)O1", "note": "(configuration not stated)", "Potency": "inconclusive: 28.2 µM [inhibitor, partial curve]"}, {"smiles": "COc1ccc(CCNC(=O)CCc2cn(Cc3ccc(F)cc3)c3ccccc23)cc1OC", "Potency": "inconclusive: 70.8 µM [inhibitor, single point]"}, {"smiles": "O=[N+]([O-])c1ccc(-c2ccc(/C=N/n3cnnc3)o2)c(Br)c1", "Potency": "inconclusive: 56.2 µM [inhibitor, partial curve]"}, {"smiles": "COc1ccccc1OCCSc1nc2ccccc2n1CCC(=O)O", "Potency": "inactive"}, {"smiles": "O=C(OC1CCOC1=O)c1ccc(Cl)c(S(=O)(=O)N2CCCCC2)c1", "note": "(configuration not stated)", "Potency": "inactive"}, {"smiles": "NNc1nc2c(F)cccc2s1", "Potency": "active: 50.1 µM"}, {"smiles": "COc1ccc(-c2csc(NC(=O)c3ccoc3C)n2)cc1", "Potency": "inconclusive: 44.7 µM [inhibitor, partial curve]"}, {"smiles": "CCOc1ccc(/C=N/n2cnnc2)cc1", "Potency": "inactive"}, {"smiles": "CC(C)c1ccc(NC(=O)CN2C(=O)CSc3ccc(S(=O)(=O)N4CCCC4)cc32)cc1", "Potency": "inactive"}, {"smiles": "O=C(CNC(=O)c1ccco1)Nc1ccc(S(=O)(=O)N2CCCC2)cc1", "Potency": "inconclusive: 89.1 µM [inhibitor, single point]"}, {"smiles": "O=C(Cn1c(NCCO)nc2ccccc21)c1ccc(F)cc1", "Potency": "inactive"}, {"smiles": "Cc1ccccc1N1CCN(Cc2cc3c(cc2[N+](=O)[O-])OCO3)CC1", "Potency": "inconclusive: 70.8 µM [inhibitor, single point]"}, {"smiles": "C=CCSC1=N/C(=C\\C=C\\c2ccco2)C(=O)S1", "Potency": "active: 10 µM"}, {"smiles": "COc1ccccc1N1CCN(S(=O)(=O)CCNC(=O)COc2ccccc2F)CC1", "Potency": "inactive"}, {"smiles": "O=C(Cc1ccc(-n2c(=S)[nH]c3ccccc3c2=O)cc1)N1CCC(N2CCCCC2)CC1", "Potency": "inconclusive: 5.01 µM [inhibitor, full curve]"}, {"smiles": "Cc1ccc(Cl)c(OCC(=O)Nc2sc(C)c(C)c2C#N)c1", "Potency": "inactive"}, {"smiles": "CCn1c(C)c(C)c2cc(C(=O)NCCCN3CCN(C)CC3)ccc21", "Potency": "inconclusive: 25.1 µM [inhibitor, single point]"}, {"smiles": "Cc1onc(-c2ccccc2Cl)c1C(=O)Nc1cccc(-c2nc3ncccn3c2C)c1", "Potency": "inactive"}, {"smiles": "COc1cccc(Nc2ncnc3sc(C)cc23)c1", "Potency": "inconclusive: 89.1 µM [inhibitor, single point]"}, {"smiles": "O=S(=O)(Nc1ccc(O)c2ccccc12)c1ccc(Br)cc1", "Potency": "active: 44.7 µM"}, {"smiles": "O=c1c2cc(F)ccc2sn1-c1ccccc1", "Potency": "active: 10 µM"}, {"smiles": "Cc1ccc(C(=O)/C=C/c2cc(Br)cc(Br)c2O)o1", "Potency": "inconclusive: 15.8 µM [inhibitor, full curve]"}, {"smiles": "CN(C)CCNS(=O)(=O)c1ccc(N2CCN(c3ccc(F)cc3)CC2)c([N+](=O)[O-])c1", "Potency": "inconclusive: 79.4 µM [inhibitor, single point]"}, {"smiles": "CCOc1ccc(S(=O)(=O)c2c(C(=O)c3ccc(C)c(C)c3)cnc3ccccc23)cc1", "Potency": "inconclusive: 25.1 µM [inhibitor, full curve]"}, {"smiles": "CN(CC(=O)Nc1ccc(N2CCOCC2)cc1)C(=O)CC(c1ccccc1)c1ccccc1", "Potency": "inconclusive: 44.7 µM [inhibitor, partial curve]"}, {"smiles": "Cc1[nH]n(-c2ccccc2)c(=O)c1N=Nc1ccccc1C(=O)N1CCCCC1", "Potency": "inconclusive: 2.51 µM [inhibitor, full curve, poor fit]"}, {"smiles": "O=C(O)/C=C/c1cccnc1", "Potency": "inactive"}, {"smiles": "C#CCOCCOCCOCCNc1nc(N2CCOCC2)nc(N2CCN(C(=O)[C@H]([C@@H](C)CC)n3cc(CCCCN)nn3)CC2)n1", "Potency": "inconclusive: 89.1 µM [inhibitor, single point]"}, {"smiles": "COC(=O)CSc1nnc(CNc2ccc(Cl)cc2)n1Cc1ccccc1", "Potency": "inconclusive: 79.4 µM [inhibitor, single point]"}, {"smiles": "Cc1c(C(=O)N2CCN(CCc3ccccc3)CC2)oc2ccccc12", "Potency": "inconclusive: 50.1 µM [inhibitor, partial curve]"}, {"smiles": "C#CCOc1ccc(/C=C2/C(=O)NN(c3ccccc3)C2=O)cc1OC", "Potency": "inconclusive: 89.1 µM [inhibitor, single point]"}, {"smiles": "O=c1c2ccccc2sn1-c1nccs1", "Potency": "active: 5.01 µM"}, {"smiles": "CCOC(=O)C1CCN(Cc2ccc(OC)cc2OC)CC1", "Potency": "inconclusive: 89.1 µM [inhibitor, single point]"}, {"smiles": "c1ccc(-c2nnc(N3CCN(c4ccccc4)CC3)nc2-c2ccccc2)cc1", "Potency": "inconclusive: 8.91 µM [inhibitor, full curve]"}, {"smiles": "Fc1cccc(-c2nnn3c2nc(NCc2ccc4c(c2)OCO4)c2ccccc23)c1", "Potency": "inactive"}, {"smiles": "O=c1oc2ccc(Cl)cc2nc1/C=C(\\O)c1cccs1", "Potency": "active: 50.1 µM"}, {"smiles": "Cc1ccc(/C=N\\NC(=O)/C(=C\\Nc2nccc(C)n2)NC(=O)c2ccccc2)cc1", "Potency": "inconclusive: 79.4 µM [inhibitor, single point]"}, {"smiles": "COc1ccc(S(=O)(=O)N2CCC(N3CCCC3)CC2)cc1", "Potency": "active: 56.2 µM"}, {"smiles": "CC(=O)c1ccc(NC(=O)C(C)N2CCN(C/C=C/c3ccccc3)CC2)cc1", "note": "(configuration not stated)", "Potency": "inconclusive: 79.4 µM [inhibitor, single point]"}, {"smiles": "CCOC(=O)C1=C(CC)Nc2ccccc2N/C1=N\\S(=O)(=O)c1cc(Br)ccc1Br", "Potency": "inconclusive: 44.7 µM [inhibitor, partial curve]"}, {"smiles": "CCN(CC)CCNC(=O)C(=O)Nc1cc2c3c(c1)CC(=O)N3CCC2", "Potency": "inactive"}, {"smiles": "CC(C)(C)c1n[nH]c(=S)n(N)c1=O", "Potency": "inconclusive: 89.1 µM [inhibitor, single point]"}, {"smiles": "Clc1cccc(CSc2nnc(-c3ccccn3)n2Cc2ccco2)c1", "Potency": "inconclusive: 89.1 µM [inhibitor, single point]"}, {"smiles": "COc1ccc(Cn2nnc(C(=O)Nc3ccc4c(c3)OCCO4)c2N)cc1Br", "Potency": "inconclusive: 56.2 µM [inhibitor, partial curve]"}, {"smiles": "N#Cc1cn(CCOc2ccc(F)cc2)c2ccccc12", "Potency": "inactive"}, {"smiles": "COc1ccc(/C=C2\\CCC/C(=C\\C=N\\N(C)C)C2=O)cc1", "Potency": "active: 31.6 µM"}, {"smiles": "Cc1ccc(-c2nc3ccccn3c2Nc2ccccc2)o1", "Potency": "inactive"}, {"smiles": "CCN1CCN(C(=O)c2ccc3c(c2)c(C)c(C)n3Cc2ccccc2)CC1", "Potency": "inconclusive: 44.7 µM [inhibitor, partial curve]"}, {"smiles": "NS(=O)(=O)c1ccc(NC2=CC(c3ccc([N+](=O)[O-])cc3)N(c3ccc(S(N)(=O)=O)cc3)C2=O)cc1", "note": "(configuration not stated)", "Potency": "inconclusive: 79.4 µM [inhibitor, single point]"}, {"smiles": "COc1ccc2c(COC(=O)CNS(=O)(=O)c3ccc(C)c(C)c3)cc(=O)oc2c1", "Potency": "inactive"}, {"smiles": "O=C(CCCN1C(=O)c2cccnc2C1=O)Nc1ccccc1F", "Potency": "inconclusive: 89.1 µM [inhibitor, single point]"}, {"smiles": "CCOC(=O)c1[nH]c2c(c1-c1ccc(OC)cc1)C(=O)CC(c1ccc(OC)c(OC)c1)C2", "note": "(configuration not stated)", "Potency": "inconclusive: 70.8 µM [inhibitor, single point]"}, {"smiles": "COc1ccc(C([O-])=Nc2ccc[n+](-c3nc4ccccc4nc3NS(=O)(=O)c3ccccc3)c2)cc1", "Potency": "inconclusive: 70.8 µM [inhibitor, partial curve]"}, {"smiles": "Cc1cc(C)c(S(=O)(=O)N2CCCCC2CCNC(=O)C(=O)NCc2ccco2)c(C)c1", "note": "(configuration not stated)", "Potency": "inconclusive: 89.1 µM [inhibitor, single point]"}, {"smiles": "CCc1ccc(C(=O)NC2=NC(c3cc(OC)ccc3OC)CC(=O)N2)cc1", "note": "(configuration not stated)", "Potency": "inactive"}, {"smiles": "COc1cc2c(c(O)c1OC)-c1c(cc(OC)c(OC)c1O)[C@@H](OC(=O)c1ccccc1)[C@@](C)(O)[C@@H](C)[C@@H]2OC(C)=O", "Potency": "active: 50.1 µM"}, {"smiles": "Cc1ccc(C(C)C)c(OCC(=O)N/N=C/c2cccn2C)c1", "Potency": "active: 25.1 µM"}, {"smiles": "Cc1cccc(CS(=O)(=O)Cc2ccc(C(=O)NCCCN3CCCC3)o2)c1", "Potency": "inconclusive: 4.47 µM [inhibitor, full curve]"}, {"smiles": "CSc1nc(=S)cc(C)[nH]1", "Potency": "inactive"}, {"smiles": "Cc1cc(Br)ccc1NC(=O)C1C2CCC(O2)C1C(=O)O", "note": "(configuration not stated)", "Potency": "inactive"}, {"smiles": "COc1ccc(CCNC(=O)C2CCCN2C(=O)Nc2cccc(OC)c2)cc1", "note": "(configuration not stated)", "Potency": "inconclusive: 89.1 µM [inhibitor, single point]"}, {"smiles": "C=CCN(CC=C)C(=S)NC(=O)c1ccc(C)c(Br)c1", "Potency": "inconclusive: 10 µM [inhibitor, full curve]"}, {"smiles": "Cc1cc(C(=O)OCC(=O)NC2CCS(=O)(=O)C2)c(C)n1-c1ccccc1", "note": "(configuration not stated)", "Potency": "inconclusive: 89.1 µM [inhibitor, single point]"}, {"smiles": "Cc1ccc(-c2nc3ccccn3c2Nc2ccc3c(c2)OCCO3)o1", "Potency": "active: 44.7 µM"}, {"smiles": "COc1ccc(S(=O)(=O)N2CCCC2C(=O)n2nc(C)cc2C)cc1", "note": "(configuration not stated)", "Potency": "inactive"}, {"smiles": "c1ccc2c(c1)CC/C2=N/Nc1nc2ccccc2[nH]1", "Potency": "inconclusive: 35.5 µM [inhibitor, partial curve]"}, {"smiles": "Nc1c(C(=O)O)sc2nc(-c3ccccc3)cc(-c3ccc(Cl)cc3)c12", "Potency": "inconclusive: 89.1 µM [inhibitor, single point]"}, {"smiles": "NC(=O)c1ccc(/C=N/O)nc1", "Potency": "active: 31.6 µM"}, {"smiles": "COc1ccc(C2C3=C(CC(C)(C)CC3=O)OC(N)=C2[N+](=O)[O-])cc1", "note": "(configuration not stated)", "Potency": "inactive"}, {"smiles": "COc1ccc(-c2nc(NC(C)=O)sc2-c2ccccc2)cc1", "Potency": "inconclusive: 56.2 µM [inhibitor, partial curve]"}, {"smiles": "O=[N+]([O-])c1cc([N+](=O)[O-])c2nonc2c1Nc1ccc(O)cc1", "Potency": "inconclusive: 89.1 µM [inhibitor, single point]"}]}]}
